Laboratory results: ChEMBL document CHEMBL4888484, “Replenishing the malaria drug discovery pipeline: Screening and hit evaluation of the MMV Hit Generation Library 1 (HGL1) against asexual blood stage Plasmodium falciparum ,using a nano luciferase reporter read-out” (2022)
Hit rate of the full screen: of about 150,000 compounds, about 540 (0.36%) showed an effect of 50% or more. The list shows a part of the results.

The compounds below were run on Plasmodium falciparum (assay: Primary screen in NF54 nanoGlo assay, in single point, at 2uM, 72h; a lower Z score goes with more inhibition). Conditions: timepoint 72 hour.
Format: functional, Erythrocyte

SMILES	% Inhibition	Z score
CN(C)c1nccnc1N1CCC[C@@](CO)(CC2CC2)C1	-19%	1.9
Cc1nccc(OC2CCN(C(=O)NC(c3ccccc3)c3ccccc3)CC2)n1	16%	-2.47
CCc1n[nH]c(C(=O)N2CC(C)(C)[C@@](C)(O)C2)c1C	-4%	0.66
c1csc(CNCCn2cncn2)c1	12%	-1.23
COc1ccc2c(c1)C(C)N1C(=O)c3ccccc3C1O2 (stereo not given)	-11%	1.08
CCC[C@@]1(C)CCCN(C(=O)c2c[nH]c(C(=O)OC)c2)C1	-17%	2.6
Cc1nc(C)c(C(=O)N[C@@H](Cn2nccn2)C(C)C)s1	-1%	0.1
CN(C)[C@H](C#N)c1cccc(Br)c1	6%	-0.79
CC(C)Oc1ccccc1C(=O)Nc1cccc(CN2CCOCC2)n1	-15%	2.42
Cc1cc(S(C)(=O)=O)cc(C(=O)N2CCOC[C@@H]2CC(F)F)c1C	-28%	3.32
CCCC(=O)N(CC(=O)N(Cc1ccco1)CC1CCCO1)C(C)CC (stereo not given)	-7%	0.97
CC1(C)CNC(=O)CN1C(=O)[C@H]1C[C@@H]1C1CCOCC1	-12%	1.26
Cc1ccc(S(=O)(=O)NC[C@H]2COC3(CCCC3)O2)cc1C	-2%	0.37
Cc1n[nH]c(C)c1S(=O)(=O)N1CCC(c2cc(C(=O)Nc3ccccc3F)[nH]n2)CC1	3%	-0.44
O=C(NCCNC1CC1)c1c(F)c(F)cc(F)c1F	6%	-0.9
C[C@@H]1CN(C(=O)Cc2cccc(Br)c2)CCN1	-3%	0.46
CC[C@H](NC(=O)NCCNC(=O)C1CCCC1)c1nc(C)cs1	-3%	0.43
Cc1ccoc1CN(C)C(=O)c1cc(CC(C)C)c[nH]1	-1%	0.15
Cc1ccoc1C(=O)Nc1ncc(Cc2cc(Cl)ccc2C(F)(F)F)s1	-37%	4.35
CCc1nnc2sc(-c3cnccn3)nn12	-2%	0.38
C[C@@H](C(=O)N(C)C1CCCCC1)N1CCOCC1	-12%	1.22
CC(C)[C@@]12C[C@@H]1[C@@H](C)c1nc(N)c(C#N)c(-c3ccc(S(C)(=O)=O)cc3)c12	-2%	0.26

SMILES	% Inhibition	Z score
CC(=O)c1ccc(NC(=O)c2cccn2-c2cccnc2)cc1	0%	0.04
Cc1ccc(Cc2nnc(NS(=O)(=O)c3cccnc3)s2)cc1	-7%	0.82
Cc1ccc(-c2c(C)nn3c2NC(=O)CCC3=O)cc1S(=O)(=O)NC1CCCC1	5%	-0.59
COc1ccc(C(=O)NCC2(C)CC(NC(=O)c3ccc(OC)c(OC)c3)CC(C)(C)C2)cc1OC (stereo not given)	-4%	0.66
O=C(Cc1cn2ccsc2n1)N1CCS(=O)(=O)C[C@H]1C1CC1	-8%	1.31
COCC(=O)N1CC(Cc2nc(-c3cccnc3)no2)C1	-13%	1.77
O=C1CCCN1CC1CCN(C(=O)c2c[nH]c(=O)c(Cl)c2)CC1	1%	-0.23
O=C(c1noc2c1CCCC2)N1CCc2sc(Cl)cc2C1	-22%	2.52
CCC[C@H]1CN(c2nccc(Oc3cccc(C#N)c3)n2)CCN1	-14%	1.45
CC[C@H]1COCCN1C(=O)Cn1nc(C)ccc1=O	-1%	0.1
O=C(C[C@H]1CCCCO1)Nc1cncnc1-n1cccn1	-5%	0.79
CC(=O)N1CCN(c2ccc(-c3nc(-c4ccccc4F)no3)cn2)CC1	16%	-2.46
O=C(NCC1CCCN2CCCCC12)c1cc(-c2cccnc2)[nH]n1 (stereo not given)	9%	-1.47
CC(C)Cn1ccnc1NC(=O)c1cc2c([nH]1)CCOC2	-2%	0.31
Cc1ncc(-c2nc3c(cnn3C)[nH]2)n1C	-3%	0.38
O=C(c1ccc2nccn2c1)N1CCCC[C@@H]1CO	-7%	0.95
COc1ccnc(C(=O)N2CCN(C)Cc3ccccc32)c1	-18%	2.2
COC(=O)c1cc(S(=O)(=O)N2CCC[C@H]2C(=O)Nc2cccc(C)n2)cn1C	-6%	1.14
Cc1ccn(Cc2cc(C)on2)c(=O)c1	-10%	1.53
Cc1ccc(NC2=NC(N)=NC3(CCCCC3)N2)cc1	0%	0.06
CCOC(=O)c1ccc(NC(=O)CNC(=O)CCC(C)C)c(O)c1	-9%	1.76
Fc1ccc(CCN[C@H]2CCc3ncnn3C2)cc1F	-11%	1.52

SMILES	% Inhibition	Z score
CC(C)CCNC(=O)[C@H](C1CCCC1)N1CCN(C(=O)c2ccc(C(F)(F)F)cc2)CC1	6%	-0.54
Cc1ccc(-n2c(C)nn(Cc3ccccc3)c2=O)cc1	30%	-3.91
CCCCN(CCc1nc(-c2ccc(N(C)C)cc2)no1)C(=O)CC(C)C	-2%	0.33
CCn1nc(C(=O)Nc2cccc(OCc3cccc(F)c3)c2)ccc1=O	5%	-0.75
Cc1cc(C)cc(NC(=O)CC(C)C)c1	1%	-0.13
Cc1ccsc1C(=O)N1CC(Oc2ccccc2-c2nc(-c3cnccn3)no2)C1	-31%	3.51
CC1CC(C(=O)N2CCN(C(=O)c3ccco3)CC2)CC(=O)N1 (stereo not given)	4%	-0.48
CCC(=O)Nc1ccccc1-c1nc2ccccc2n(CCOc2ccc(F)cc2)c1=O	-8%	1.54
O=C(NC1CCOC2(CCC2)C1)c1cn(C2CCOC2)nn1 (stereo not given)	5%	-0.59
CCN(CC(=O)Nc1ccc2c(c1)OCCO2)C(=O)c1sccc1C	-11%	1.02
COC[C@@H]1CC(F)(F)CN1C1CCN(C(=O)c2cc(C)no2)CC1	-10%	1.96
Cc1cc(C(=O)Nc2[nH]ncc2-c2ccccc2Br)no1	-6%	0.62
Cc1[nH]c2c(F)cc(F)cc2c1CCNC(=O)Cn1cc(N)cn1	4%	-0.51
Cn1c(=O)c2ncn(CC(=O)Nc3ccc(C(=O)NC4CCCCC4)cc3)c2n(C)c1=O	30%	-3.92
Cc1nn(-c2ccc(C(C)(C)C)cc2)c(C)c1[C@@H]1C=C[C@@H](NC(=O)Nc2ccccc2)C1	2%	-0.33
CC[C@H](C)Nc1cnc2c(c1)c(NC(=O)C1CCC1)c(C(=O)OC)n2CCc1ccccn1	12%	-1.59
Cc1ccccc1[C@H](C)N1CCC2(CC1)COCCO2	-8%	1.07
Cc1noc(C)c1CN1CCC[C@H](c2cc(C(N)=O)[nH]n2)C1	16%	-1.79
CC1CN(C)CC(C)N1C(=O)c1ccnc(C#N)c1 (stereo not given)	-9%	1.44
Cc1cccc(S(=O)(=O)N2CCOC[C@@]23CCOC3)c1F	-7%	1
CC(C)c1cc(C(=O)NCc2nnc(C(C)C)n2C)no1	7%	-0.76
CCN(CCC(=O)NCCCOC)C(=O)c1ccoc1	-13%	1.31

SMILES	% Inhibition	Z score
CN(C)Cc1csc(CNC(=O)Nc2cnn3ccccc23)n1	-6%	0.66
CN(C(=O)CN1CCn2nc(Cc3ccccc3)cc2C1)c1ccccc1	0%	0.07
C[C@@H]1Oc2ccc(Br)cc2CN(C2CC2)C1=O	4%	-0.42
O=C(Nc1ccc2[nH]ccc2c1)c1c[nH]c2cccnc12	2%	-0.32
CC(C)c1cc(CN(C)C(=O)[C@@H]2CCC(=O)NC(=O)N2)on1	6%	-1.24
COC[C@@H](c1ccnn1C)n1cc(-c2ccc3c(c2)OCCO3)nn1	-10%	1.56
O=C(c1cc(=O)[nH]c2ccccc12)N1C[C@@H]2C[C@H]1CN2Cc1ccccc1	-7%	1.08
O=C(NC1CCC(O)CC1)N[C@@H](Cc1ccccc1)c1cccs1 (stereo not given in full)	-13%	1.95
Cc1nn(-c2cccc(F)c2)c(N2CCN(C)CC2)c1CN(CCC(C)C)C(=O)COCc1ccccc1	9%	-0.76
Cc1n[nH]c([C@@H]2CN(Cc3c(C)noc3C)CCO2)n1	-6%	0.56
COc1cc(C)sc1C(=O)NCC[C@H]1CCCO1	-1%	0.13
Cc1ccc(CN2c3ccc(F)cc3OC[C@@H]2CC(=O)Nc2ccc(C)c(C)c2)cc1	-2%	0.34
O=C(NCc1ccc(F)cc1)c1noc(Cc2ccccc2)n1	-12%	1.45
CC(=O)N1C(=O)C[C@H](C)N(C(C)=O)c2ccccc21	-10%	1.11
FC(F)Oc1cncc(-c2cnc(C3CCOCC3)o2)c1	2%	-0.43
Cc1ccc(Cl)cc1C(=O)N1C[C@@H](CN2CCCN(C)CC2)[C@@H](CO)C1	-2%	0.18
Cc1cccc2c1[C@H](NC(=O)C(C)(C)NC(=O)c1cccs1)C(=O)N2	9%	-1.05
Cn1cccc1C(=O)N[C@@H](Cc1ccccc1)C(=O)N1CCCOCCNC(=O)CC1	-16%	2.05
O=C(Nc1cnccn1)c1cc(-c2cccc(Br)c2)nc2c(Cl)cccc12	6%	-0.81
